# Assay results reported in PubChem BioAssay AID1794842 (National Center for Advancing Translational Sciences (NCATS), 2023).
# The whole screen tested about 2,800 compounds, of which fewer than 10 were called active. Calls follow the shape of the dose curve; as a rule, active = well fitted curve in the direction sought with a large enough effect; inconclusive = small, poorly fitted or top-dose-only effect, or another doubt; inactive = no such curve, though single readings can be large or run the other way. The list shows a part of the results.
# Molecular target: Metallo-beta-lactamase type 2 (Klebsiella pneumoniae) (UniProt C7C422)
# UniProt C7C422, sequence (C7C422 whole entry, looked up): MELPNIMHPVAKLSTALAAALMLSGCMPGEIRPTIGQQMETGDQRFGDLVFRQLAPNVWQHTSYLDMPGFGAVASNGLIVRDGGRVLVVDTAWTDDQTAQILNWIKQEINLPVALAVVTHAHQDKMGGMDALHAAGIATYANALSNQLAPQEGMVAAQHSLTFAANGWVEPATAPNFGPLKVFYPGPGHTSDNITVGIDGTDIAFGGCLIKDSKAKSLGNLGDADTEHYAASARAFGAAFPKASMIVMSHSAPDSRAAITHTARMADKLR
# Assay: qHTS to identify inhibitors of the New Delhi Metallo-beta-lactamase (NDM): Meropenem screen against the machine-based learning selections. Also: % of control where 0% means no effect.
# Settings: Purified NDM-1, meropenem hydrolysis, absorbance 300 nm; at 38.4 µM (top of the series) unless noted
# Method in brief: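 NDM-1 (2 nM final) in 50 mM HEPES pH 7.0, 1 uM Zn2SO4, 0.01% Tween20 was preincubated with compounds for >30 min. Nitrocefin (16.7 uM final) was read at 485 nm after 15 min, and meropenem (50 uM final) at 300 nm after 30 min.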
row,SMILES,"activity change, negative = inhibition"
1,COc1ccc(C(=O)N[C@H]2C[C@H]3C(=O)Nc4ccccc4C(=O)N3C2)cc1,inactive: 2.49% [at 57.5 µM]
2,O=C(Cc1ccncc1)N1CCC2(CC1)NCCc1c2[nH]c2ccccc12,inactive: 0.152%
3,O=C(N[C@H](C1CCNCC1)C1CC(O)C1)c1ccc2nccnc2c1 (some centres not stated),inactive: 59.6%
4,O=C(c1ccccc1)N1C[C@@H]2OCC(=O)N(c3ccccc3)[C@@H]2C1,inactive: 2.74% [at 57.5 µM]
5,O=C1Nc2ccc(-c3cccc(C(F)(F)F)c3)cc2C(=O)N2CCN(C(=O)[C@@H]3CSCN3)C[C@H]12,inactive: -3.56%
6,O=C(CN1CC2CC(C1)[C@H]1CCCC(=O)N1C2)Nc1ccccc1 (some centres not stated),inactive: -1.32%
7,CCOC(=O)c1ccc(N2C(=O)[C@@H]3Cc4nc[nH]c4CN3C2=O)cc1,inactive: -1.18% [at 57.5 µM]
8,Cc1cc(CN2CCC(CO)(Cc3ccccc3Cl)CC2)cc(C)c1O,inactive: 0.408%
9,COc1ccc(C(=O)NCc2nnc3ccc(-c4ccccc4)nn23)c(OC)n1,inactive: 8.31%
10,CC(=O)N1CCN(C(=O)C[C@@H]2C[C@@H](C(C)C)[C@H](CNC(=O)Nc3cccc(F)c3)C=C2C)CC1,inactive: 0.0244%
11,O=C(NC1CCCCC1)N[C@H]1CO[C@H]2[C@@H]1OC[C@@H]2n1cc(-c2ccccc2)nn1,inactive: 0.505% [at 57.5 µM]
12,COC(=O)[C@@H]1Cc2ncn(C)c2CN1S(=O)(=O)c1cccc(C(F)(F)F)c1,inactive: 38.1% [at 57.5 µM]
13,O=[S+]([O-])(NCC1CN(Cc2ccc(O)cc2)CC12CN(c1ccccc1)C2)c1ccccc1 (configuration not stated),inactive: -0.105%
14,CCCCCC(=O)N[C@H]1C[C@@H](Cc2cc(COc3ccccc3)on2)C1(C)C,inactive: -0.284% [at 57.5 µM]
15,COc1ccc([C@@H](NC(=O)Cc2c(F)cccc2Cl)C2CC(O)C2)cn1 (some centres not stated),inactive: 0.991%
16,OC(c1nc(Nc2ccc(Oc3ccccc3)cc2)n[nH]1)C1CC1 (configuration not stated),inactive: 1.37% [at 57.5 µM]
17,CCOc1ccccc1-c1nc(C2CC(=O)N(c3ccc(C)cc3)C2)no1 (configuration not stated),inactive: -0.61%
18,CN(Cc1ccccc1)Cc1cc(C[C@@H]2CC[C@H](O)[C@@H](CNC(=O)Nc3ccccc3)O2)no1,inactive: 3.28%
19,CCCc1cc(C(=O)N[C@@H]2COCC[C@H]2Oc2ccc(C(=O)O)cc2)n[nH]1,inactive: -1.31%
20,c1csc(-c2[nH]ncc2CNC2CCC3(CCNCC3)CC2)c1,inactive: 26.7%
21,CCn1ncc(NC(=O)Cn2ncc3cc(-c4ccc(C(=O)N(C)C)cc4)ccc32)n1,inactive: 3.65%
22,CC(C)CN[C@H]1CO[C@H]2[C@@H]1OC[C@@H]2Nc1nccc(C(C)(C)C)n1,inactive: -0.944% [at 57.5 µM]
23,COCCNc1nc2cc(C(=O)N3CC[C@H](CO)[C@@H](O)C3)ccc2n1C,inactive: 0.0233%
24,CCN(CC)C(=O)[C@@H]1C[C@H](N)CN1C(=O)c1cc2ccccc2n(C)c1=O,inactive: 1.94%
25,Cn1ccnc1CNC[C@H]1Cn2c(-c3ccccc3)cnc2CO1,inactive: 52.1% [at 57.5 µM]
26,CC(C)C1CN(C(=O)c2ccccc2-c2ncc[nH]2)CCC(=O)N1CC1CC1 (configuration not stated),inactive: -1.59%

row,SMILES,"activity change, negative = inhibition"
1,CC[C@H]1CN(C(C)=O)CC[C@H]1CC(=O)Nc1ccccc1,inactive: -2.16% [at 76.7 µM]
2,CC1=C[C@@H](CNC(=O)c2ccc(F)cc2)[C@H](C(C)C)C[C@H]1CC(=O)N1CCN(C)CC1,inactive: -2.02% [at 57.5 µM]
3,O=C1Nc2ccc(/C=C/c3ccccc3)cc2C(=O)N2CC[C@H](NS(=O)(=O)c3cccs3)[C@@H]12,inactive: 3.88%
4,O=C(O)c1cccc(CN2CCN(c3ccc4nccn4n3)CC2)n1,inactive: 52.5%
5,NC(=O)C1CCC(=O)N1C1CCNCC1 (configuration not stated),inactive: -0.0837%
6,Cn1nc(C(=O)Nc2ccc3c(c2)C(=O)N2CCC[C@H]2C(=O)N3)c2ccccc21,inactive: 3.53%
7,CCCCCC(=O)Nc1nc2c(s1)C[C@@H]1[C@](C)(CO)[C@H](O)CC[C@@]1(C)[C@@H]2CC(=O)NCc1ccccc1,inactive: 0.525%
8,O=c1cc(-c2ccccn2)oc2c(-c3cccc(CO)c3)nccc12,inactive: 19.2% [at 57.5 µM]
9,C[C@@H]1CN(c2cc(C3CC3)ncn2)C[C@@]1(O)C1CCC1,inactive: 3.45%
10,Cn1ccc2c(C(=O)NCc3cccnc3)nc(-c3cccc(O)c3)cc21,inactive: 1.23% [at 57.5 µM]
11,O=C(Nc1ccc(F)cc1)Nc1cccc(-c2ccc(N3CCOCC3)nn2)c1,inactive: 7.76%
12,Cc1ccc(-c2noc([C@@H]3Cc4nc[nH]c4CN3C(=O)CCC(=O)O)n2)cc1,inactive: 14.5% [at 57.5 µM]
13,Cc1nc([C@@H]2CN(S(=O)(=O)c3ccc4c(c3)CCC4)C[C@H]2C(N)=O)n[nH]1,inactive: -0.16%
14,O=C(c1ccccc1F)N1CCCC(c2nn[nH]n2)C1 (configuration not stated),inactive: -0.378%
15,CC1=C[C@@H](CNCCN(C)C)[C@H](C(C)C)C[C@H]1Cc1nnc(-c2ccc(C)cc2)o1,inactive: -3.5% [at 57.5 µM]
16,CN(C)C[C@@H]1CN(Cc2ccccn2)C[C@H]1NS(=O)(=O)c1cccc(C#N)c1,inactive: 8.54%
17,OC[C@@H]1O[C@H](CNCc2ccc(F)cc2)[C@H](N2CCN(c3ccccc3)CC2)[C@@H]1O,inactive: 61.8%
18,O=C(c1nc2ccccc2[nH]1)N1CCNc2cnc(Nc3ccc(-n4ccnc4)cc3)nc2C1,inactive: 37.1%
19,O=C(NC1CCCc2nc(N3CCC(CO)CC3)ncc21)c1ccccn1 (configuration not stated),inactive: 2.04%
20,COc1ccccc1-c1cc(C(=O)NC(C)C)c2cnn(C)c2n1,inactive: 3.23% [at 57.5 µM]
21,CC1=C[C@@H](CN(C)CCN(C)C)[C@H](C(C)C)C[C@H]1Cc1nnc(-c2ccccc2)o1,inactive: 1.96% [at 57.5 µM]
22,CCN(CC)C(=O)[C@@H]1CCC[C@@H](NC(=O)Nc2c(C)noc2C)CN(C)C(=O)C1,inactive: -0.0378% [at 57.5 µM]
23,COc1ccc(Nc2cc3c(cn2)CN(CCc2ccccc2)CCN3)cc1,inactive: -0.503% [at 57.5 µM]
24,OC1(CN2CCN(c3nccs3)CC2)CCCNC1 (configuration not stated),inactive: 75%
25,Cc1cc(C)c(CNC(=O)c2nc(-c3cccc(O)c3)cc3[nH]ccc23)c(=O)[nH]1,inactive: 15.9% [at 57.5 µM]
26,CC(C)CN1C(=O)COC[C@@H]1[C@H](O)c1ccc(NC(=O)C2CCCC2)cc1,inactive: 0.319% [at 57.5 µM]

row,SMILES,"activity change, negative = inhibition"
1,Cc1ncsc1CCC(=O)N[C@@H]1CCOC[C@H]1OCC(=O)O,inactive: 24.4%
2,COc1ccc(CN2CCCC(CO)(CC3CC3)C2)c(F)c1 (configuration not stated),inactive: 2.29%
3,CC1=C[C@@H](CNc2ccccn2)[C@H](C(C)C)C[C@H]1Cc1nnc(-c2ccc(C)cc2)o1,inactive: 4.8% [at 57.5 µM]
4,C=CCC1(C(=O)O)CCCN(Cc2cnc(NCc3ccccc3)nc2)C1 (configuration not stated),inactive: -1.54%
5,CCn1cc(-c2ccc(OC)cc2)cc1C(=O)N1CCCCCC1,inactive: 6.42%
6,COCc1cc(C[C@@H]2CC[C@H](O)[C@@H](CNS(=O)(=O)c3ccccc3)O2)no1,inactive: 1.18% [at 57.5 µM]
7,Cc1cc(C(=O)N[C@@H]2C[C@H](Cn3cc(CN4CCS(=O)(=O)CC4)nn3)[C@@H](O)[C@H]2O)nn1C,inactive: 40.9%
8,O=C([C@@H]1C[C@H](Oc2ccccc2)CN1C(=O)c1cccs1)N1CCOCC1,inactive: -0.949%
9,CCc1c(C)nn(CC(=O)N2CCC3(CCNC(=O)CC3)CC2)c1C,inactive: 0.461%
10,O=C(O)c1ccc(CC2CCN(C(=O)c3cccc(-n4cccn4)c3)C2)cc1 (configuration not stated),inactive: -3.18%
11,Cc1nn(C)c(C)c1CCC(=O)N[C@@H]1CN(c2ncccn2)C[C@H]1CO,inactive: 1.46%
12,CCCn1ccc2oc(C)c(C(=O)NCc3ccc(OC)cc3)c2c1=O,inactive: 3.75%
13,O=C(NCc1cccc(F)c1)c1cnc2c(c1)N(C(=O)Cc1ccc(O)cc1)CCC2,inactive: -3.34% [at 57.5 µM]
14,CC(=O)N1CCN([C@H]2[C@@H]3OC[C@@H](O3)[C@@H](NCc3ccco3)[C@@H]2O)CC1,inactive: 5.36% [at 57.5 µM]
15,Cc1ccnc(N2CCC(c3nnc(-c4ccc(F)cc4)o3)CC2)n1,inactive: 1.88%
16,O=c1cc(-c2ccccn2)oc2c(NCc3ccc(F)cc3)nccc12,inactive: 8.87% [at 57.5 µM]
17,CCn1nccc1C(=O)NCc1cc(C)cc2c(C)c(-c3ccccc3)[nH]c12,inactive: 5.32%
18,C[C@@H](c1ccccc1)N1C(=O)[C@@H]2CN(C(=O)c3ccc(N(C)C)cc3)CCN2C1=O,inactive: 17.9% [at 57.5 µM]
19,Cn1ccnc1C(=O)N1CC(c2noc(C3CCCN3CC3CC3)n2)C1 (configuration not stated),inactive: 0.0609%
20,Cc1cccc(Nc2nc(N)nc(CN3CCOCC(O)C3)n2)c1 (configuration not stated),inactive: 28.8%
21,COCCN1CC2(CCCN(C(=O)CCc3cccc(F)c3)C2)CCC1=O (configuration not stated),inactive: 3.45%
22,COc1ccccc1C(=O)N1CC[C@H]2COC(=O)N2c2cc(C)ccc2C1,inactive: 2.81% [at 57.5 µM]
23,COc1ccc(CN2CCN(c3nc4ccccc4o3)CC2CCO)cc1C (configuration not stated),inactive: 0.951%
24,CS(=O)(=O)c1ccc(CNC[C@H]2Cn3ccnc3CO2)cc1,inactive: -1.46% [at 57.5 µM]
25,O=C(NC(c1ccccc1)c1ccccc1)c1cnc2c(c1)N(C(=O)Cc1ccc(O)cc1)CCC2,inactive: 1.04%
